In the supplement of paper PMC6089552:
Screen size: about 3,200 compounds; about 300 (9.4%) showed activity. The entries are a selection whose mix differs from that of the whole data set.

Tested on: A673/TR/shEF
Experiment: cell viability (LOESS-normalised, relative to median of negative controls) (log2 ratio); higher = more viable cells (less compound effect), active = hit call of the paper (over 3 MAD below the median)
Settings: treatment time: 72 h
Procedure, shortened: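 A673/TR/shEF Ewing sarcoma cells were plated at 1,500 per well in 384-well plates and cultured with or without doxycycline, added 24 h before compounds, to induce EWS-FLI1 shRNA knockdown. Library compounds at two or more concentrations, alongside DMSO controls, were applied for three days. Cell viability was measured by CellTiter-Glo luminescence on an Envision reader. Readings were LOESS-corrected per plate, divided by the median of negative controls and log2-transformed, and hits were wells lying at least three median absolute deviations from the median of all screened wells.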

[1] = 0.25 µM, library screen: screen1, EWS-FLI1 expression: high (no doxycycline)
[2] = 0.25 µM, library screen: screen1, EWS-FLI1 expression: low (doxycycline-induced shRNA knockdown)
[3] = 2.5 µM, library screen: screen1, EWS-FLI1 expression: high (no doxycycline)
[4] = 2.5 µM, library screen: screen1, EWS-FLI1 expression: low (doxycycline-induced shRNA knockdown)
[5] = 0.25 µM, library screen: screen2, EWS-FLI1 expression: high (no doxycycline)
[6] = 0.25 µM, library screen: screen2, EWS-FLI1 expression: low (doxycycline-induced shRNA knockdown)
[7] = 2.5 µM, library screen: screen2, EWS-FLI1 expression: high (no doxycycline)
[8] = 2.5 µM, library screen: screen2, EWS-FLI1 expression: low (doxycycline-induced shRNA knockdown)
[9] = 0.025 µM, library screen: screen1, EWS-FLI1 expression: high (no doxycycline)
[10] = 0.025 µM, library screen: screen1, EWS-FLI1 expression: low (doxycycline-induced shRNA knockdown)
[11] = 25 µM, library screen: screen1, EWS-FLI1 expression: high (no doxycycline)
[12] = 25 µM, library screen: screen1, EWS-FLI1 expression: low (doxycycline-induced shRNA knockdown)
[13] = 0.103 µM, library screen: screen3, EWS-FLI1 expression: high (no doxycycline)
[14] = 0.103 µM, library screen: screen3, EWS-FLI1 expression: low (doxycycline-induced shRNA knockdown)
[15] = 0.308 µM, library screen: screen3, EWS-FLI1 expression: high (no doxycycline)
[16] = 0.308 µM, library screen: screen3, EWS-FLI1 expression: low (doxycycline-induced shRNA knockdown)
[17] = 0.926 µM, library screen: screen3, EWS-FLI1 expression: high (no doxycycline)
[18] = 0.926 µM, library screen: screen3, EWS-FLI1 expression: low (doxycycline-induced shRNA knockdown)
[19] = 2.8 µM, library screen: screen3, EWS-FLI1 expression: high (no doxycycline)
[20] = 2.8 µM, library screen: screen3, EWS-FLI1 expression: low (doxycycline-induced shRNA knockdown)
[21] = 8.3 µM, library screen: screen3, EWS-FLI1 expression: high (no doxycycline)
[22] = 8.3 µM, library screen: screen3, EWS-FLI1 expression: low (doxycycline-induced shRNA knockdown)
[23] = 25 µM, library screen: screen3, EWS-FLI1 expression: high (no doxycycline)
[24] = 25 µM, library screen: screen3, EWS-FLI1 expression: low (doxycycline-induced shRNA knockdown)

Measured: cell viability (log2)

CC(=O)Oc1c(Cl)c(C)c2c(c1Cl)OC(=O)c1c(C)c(Cl)c(OC(C)=O)c(Cl)c1O2
inactive: [1] 0.0776 | [2] 0.0649 | [3] 0.0636 | [4] -0.0345

O=c1ccc2ccc(O)c(O)c2o1
inactive: [1] 0.103 | [2] 0.0493 | [5] 0.167 | [6] 0.0609 | [3] 0.12 | [4] 0.132 | [7] 0.0434 | [8] 0.106

O=C1Cc2c([nH]c3ccc([N+](=O)[O-])cc23)-c2ccccc2N1
active: [7] -0.122 | [8] -0.312
inactive: [5] 0.0426 | [6] 0.0802

CC1=C2C(O)C(=O)OC3CC4C(C)(C)C(=O)CCC4(C)C(CC1)C23C (stereo not given)
inactive: [1] 0.149 | [2] 0.0333 | [3] 0.0817 | [4] 0.166

N#C/C(=C\c1ccc(O)c(O)c1)C(N)=O
inactive: [9] 0.246 | [10] 0.0278 | [2] 0.0878 | [4] 0.0598 | [12] 0.125
active: [3] -0.381 | [11] -0.224
0.319: [1]

CC(C)(C)C(=O)OCOP(=O)(COCCn1cnc2c(N)ncnc21)OCOC(=O)C(C)(C)C
active: [19] -0.371 | [21] -0.686 | [23] -1.44 | [24] -0.304
inactive: [13] -0.0455 | [14] 0.0657 | [15] -0.0326 | [16] 0.0345 | [17] -0.105 | [18] -0.0287 | [20] -0.0209 | [22] -0.0516

O=S(=O)(c1cccc2c(I)cccc12)N1CCCNCC1
inactive: [9] 0.188 | [10] -0.167 | [1] 0.201 | [2] -0.255 | [5] 0.178 | [6] 0.133 | [4] -0.111 | [7] 0.0746 | [8] 0.0593
active: [3] -0.248 | [11] -0.335 | [12] -0.197

CS(=O)(=O)CCNCc1ccc(-c2ccc3ncnc(Nc4ccc(OCc5cccc(F)c5)c(Cl)c4)c3c2)o1
inactive: [13] 0.145 | [14] 0.0528 | [15] 0.146 | [16] 0.112 | [17] 0.139 | [18] 0.114 | [19] 0.0651 | [20] 0.113 | [21] 0.0899 | [22] 0.0389 | [23] 0.0387 | [24] 0.0962

Oc1ccc(Cl)c2cccnc12
inactive: [1] 0.0488 | [2] 0.119 | [3] 0.153 | [4] 0.115

O=C(O)CCC(=O)N1CCCC1C(=O)O (stereo not given)
inactive: [5] 0.193 | [6] 0.0669 | [7] 0.208 | [8] 0.0645

CN1CCc2ccccc2Cc2[nH]c3ccccc3c2CC1
inactive: [5] 0.0116 | [6] 0.091 | [7] 0.105 | [8] -0.105

Nc1ccccn1
inactive: [1] 0.153 | [2] 0.0142 | [3] 0.204 | [4] -0.00691

COc1c(O)cc(O)c2c(=O)c(-c3ccc(O)cc3)coc12
inactive: [1] 0.0728 | [2] 0.0747 | [3] 0.145 | [4] 0.165

CC(C)(Sc1cc(C(C)(C)C)c(O)c(C(C)(C)C)c1)Sc1cc(C(C)(C)C)c(O)c(C(C)(C)C)c1
inactive: [1] 0.147 | [2] 0.0373 | [3] 0.16 | [4] 0.122

COc1cc(Cc2cnc(N)nc2N)cc(OC)c1OC
active: [5] -0.215 | [6] -0.0762 | [7] -1.67 | [8] -2.59
inactive: [1] 0.149 | [2] 0.184 | [3] 0.204 | [4] 0.321

NC(=O)C(=O)O
inactive: [5] 0.137 | [6] 0.013 | [7] 0.0237 | [8] -0.00276

COc1ccc([C@H]2CNC(=O)C2)cc1OC1CCCC1
inactive: [13] 0.0822 | [14] 0.0894 | [15] 0.108 | [16] 0.0819 | [17] 0.0914 | [18] 0.0534 | [19] 0.035 | [20] 0.0665 | [21] 0.0619 | [22] 0.0322 | [23] 0.15 | [24] 0.0323

CCN(CC)CCOC(=O)C(c1ccccc1)C1CCCCC1 (stereo not given)
inactive: [1] 0.0555 | [2] 0.0399 | [3] 0.16 | [4] -0.0449

C=CC(=O)c1ccc2ccccc2c1
active: [3] -0.264 | [11] -0.287
0.286: [1]
0.279: [9]
inactive: [10] 0.0903 | [2] 0.00371 | [4] 0.198 | [12] -0.0301

NS(=O)(=O)c1cccc2c1c([N+](=O)[O-])cc1nc(O)c(O)nc12
inactive: [5] 0.201 | [6] 0.173 | [7] 0.0681 | [8] 0.042

COc1cc2c(cc1OC)C(=O)C(CC1CCN(Cc3ccccc3)CC1)C2 (stereo not given)
inactive: [13] -0.0816 | [14] 0.0748 | [1] 0.0675 | [2] 0.0517 | [15] 0.04 | [16] 0.0571 | [17] 0.0918 | [18] 0.0635 | [3] 0.0667 | [4] 0.0263 | [19] 0.0185 | [20] 0.0287 | [21] 0.0526 | [22] 0.0184 | [23] 0.136 | [24] 0.0264

CCCCC(CC)CN1CN(CC(CC)CCCC)CC(C)(N)C1 (stereo not given)
inactive: [1] 0.138 | [2] 0.149 | [3] 0.164 | [4] 0.252

NC(N)=NCc1cccc(I)c1
inactive: [5] 0.0563 | [6] 0.101 | [7] 0.134 | [8] 0.13

CO[C@@]1(NC(=O)Cc2cccs2)C(=O)N2C(C(=O)O)=C(COC(N)=O)CS[C@@H]21
inactive: [1] 0.0661 | [2] 0.0398 | [3] 0.0907 | [4] 0.113

CC(C)(C)c1ccccc1OCC(O)CN1CCCCC1 (stereo not given)
inactive: [1] 0.09 | [2] 0.0909 | [3] 0.176 | [4] 0.0864
